Source: paper PMC4336329 (PLoS ONE, 2015)
In all, about 310,000 compounds went through this assay and about 2,200 (0.71%) showed an effect of 50% or more. The effect is printed as a negative number. Some of the results follow.

biological target: human ether-à-go-go-related gene (hERG) potassium channel (human, UniProt Q12809); experiment: primary screen, population patch clamp on CHO cells stably expressing hERG
Sequence (Q12809 whole entry, looked up): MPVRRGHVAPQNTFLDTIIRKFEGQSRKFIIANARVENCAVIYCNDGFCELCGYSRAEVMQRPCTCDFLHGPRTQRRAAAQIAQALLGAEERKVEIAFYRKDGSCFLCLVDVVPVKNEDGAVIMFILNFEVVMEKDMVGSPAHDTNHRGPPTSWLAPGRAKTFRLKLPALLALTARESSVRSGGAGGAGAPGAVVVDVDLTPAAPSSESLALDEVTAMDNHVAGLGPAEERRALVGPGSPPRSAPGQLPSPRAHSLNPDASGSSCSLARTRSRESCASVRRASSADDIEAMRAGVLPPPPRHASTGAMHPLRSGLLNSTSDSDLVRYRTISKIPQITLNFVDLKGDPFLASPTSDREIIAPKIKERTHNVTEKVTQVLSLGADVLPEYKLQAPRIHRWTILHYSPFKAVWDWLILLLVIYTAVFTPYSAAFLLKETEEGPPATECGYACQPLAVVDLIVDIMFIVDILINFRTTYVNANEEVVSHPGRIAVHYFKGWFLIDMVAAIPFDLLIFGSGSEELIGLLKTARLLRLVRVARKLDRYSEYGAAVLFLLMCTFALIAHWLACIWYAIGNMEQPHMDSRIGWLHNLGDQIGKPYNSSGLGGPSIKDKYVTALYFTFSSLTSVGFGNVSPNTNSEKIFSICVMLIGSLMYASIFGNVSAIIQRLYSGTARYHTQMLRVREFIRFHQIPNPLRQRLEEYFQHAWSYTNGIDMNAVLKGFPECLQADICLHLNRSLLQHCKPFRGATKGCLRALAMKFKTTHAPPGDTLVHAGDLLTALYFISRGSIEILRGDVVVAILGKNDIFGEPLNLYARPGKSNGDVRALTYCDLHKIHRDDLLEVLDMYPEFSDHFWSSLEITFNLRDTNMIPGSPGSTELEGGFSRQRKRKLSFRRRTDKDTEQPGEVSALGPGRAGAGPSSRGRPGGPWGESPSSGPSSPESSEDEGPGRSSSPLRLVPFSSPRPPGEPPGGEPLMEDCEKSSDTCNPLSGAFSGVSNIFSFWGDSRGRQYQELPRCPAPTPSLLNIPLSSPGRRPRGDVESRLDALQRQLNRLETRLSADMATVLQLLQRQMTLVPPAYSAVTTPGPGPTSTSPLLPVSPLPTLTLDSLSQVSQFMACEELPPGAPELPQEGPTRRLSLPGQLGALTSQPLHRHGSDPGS

| SMILES | hERG current change (%, negative = inhibition) at 1uM |
| --- | --- |
| CCOc1ccc(C(=O)COC(C)=O)cc1 | 9.74% |
| CSc1ncc(Cl)c(C(=O)Nc2nnc(SC/C=C/c3ccccc3)s2)n1 | 4.26% |
| O=C(NCc1ccco1)c1ccc(Cn2c(=O)c3sccc3n(Cc3ccc(F)cc3)c2=O)cc1 | 12.9% |
| COc1ccc(C2(c3cccc(O)c3OC)CCN(C(C)=O)CC2)cc1O | 17.8% |
| COc1ccc(C2COc3cc(O)ccc3C2)c(OC)c1O (centres unmarked) | 1.75% |
| CC(=O)Nc1ccc(NC(=S)NC(=O)c2ccc([N+](=O)[O-])cc2)cc1 | 11% |
| O=C(Cc1c(F)cccc1Cl)Nc1ccon1 | -1.31% |
| COC(=O)NCCOC(=O)N(O)c1ccc(Br)cc1 | 15.2% |
| Cc1cc(C)n2c(Br)c(CSc3nc4ccccc4s3)nc2n1 | -19.3% |
| Cc1cccc(NC(=O)CSc2nc(COc3ccccc3)nc3ccccc23)c1C | 11.5% |
| Cc1ccc(OCC(=O)NCCCNC(=O)c2ccccn2)cc1C | 8.1% |
| CC1(C)Oc2ccc3ccc(=O)oc3c2/C(=C/Nc2ccccc2)C1=O | 11.8% |
| CSc1nc(-c2ccc(Cl)cc2Cl)[nH]c(=O)c1C#N | 5.2% |
| CCOc1ccccc1NC(=O)c1ccc2[nH]c(C)c(C)c2c1 | 14.1% |
| CC(=O)Nc1nc(CC(C)C)cc2c1c(=O)oc1ccccc12 | 13.9% |
| CN(C)CCC[C@]1(c2ccc(F)cc2)OCc2cc(C#N)ccc21 | 4% |
| COc1cc(C(=O)OC2CCCCC2=O)cc(OC)c1C (centres unmarked) | 14.2% |
| CCCCC(CCCC)=N/N=C/c1c(O)n(CC)c2cc(C3=NNC(=O)CC3)ccc12 | 8.92% |
| Cc1cc(C)c2cc(CN(CCO)C(=O)Nc3ccc(Cl)cc3)c(=O)[nH]c2c1 | 3.03% |

| SMILES | hERG current change (%, negative = inhibition) at 1uM |
| --- | --- |
| Cc1ccc2[nH]c3c(=O)n(CCN4CCOCC4)cnc3c2c1 | 6.2% |
| CC(Sc1cccc[n+]1[O-])C(=O)Nc1ccc([N+](=O)[O-])cc1Cl (centres unmarked) | 14.8% |
| CSc1ccc(C(=O)C2CCCN(C(=O)c3cccc(N4CCOCC4)c3)C2)cc1 (centres unmarked) | 7.13% |
| O=C(CSc1nc2c(c(=O)n1-c1ccccc1)SCC2)NCC1CCCO1 (centres unmarked) | 22.4% |
| O=C(CSCc1ccc(Cl)cc1)Nc1ccc(S(=O)(=O)N2CCOCC2)cc1 | 6.24% |
| CCOc1ccc(NS(=O)(=O)c2ccc(C(=O)NCc3cccnc3)cc2)cc1 | 3.77% |
| Cc1cccc(C)c1NC(=O)c1ccc(-n2cncn2)nc1 | -4.02% |
| O=C1O/C(=C\c2ccccc2)c2ccccc21 | 0.366% |
| COc1ccc(C2C(C(=O)N3CCCCC3)CCC(=O)N2c2cc(OC)c(OC)c(OC)c2)cc1 (centres unmarked) | 13.4% |
| COc1ccc(C2=NN(Cc3c(F)cccc3Cl)C(=O)CC2)cc1 | 4.06% |
| CCOC(=O)c1ccc(NC(=O)CSc2nnc(CCc3ccc(C)o3)n2-c2ccccc2)cc1 | 4.53% |
| COc1ccc(S(=O)(=O)c2c(O)c3ccc(C(=O)Nc4cccc(F)c4)cc3[nH]c2=O)cc1 | 11% |
| O=c1cc(CSc2ccccc2)nc(-c2ccncc2)[nH]1 | 13.6% |
| Cc1ccc(C(C)C)c(OCC(=O)N2CCN(c3ncccn3)CC2)c1 | 10% |
| CN1CCN(C(=O)c2cc(S(=O)(=O)Nc3ccccc3F)c(Cl)cc2Cl)CC1 | 6.49% |
| O=C1CN(C(=O)c2ccccc2F)c2ccccc2N1 | 11.9% |
| CCCc1nnc(NC(=O)CCC(=O)N2CCCCCC2)s1 | 8.94% |
| COc1ccc(CCNC(=O)CSc2nc(O)c(C(C)C)c(=O)[nH]2)cc1OC | 12.5% |
| COC(=O)C1=C(c2cccc(OC)c2OC)C[C@@H]2CC[C@H]1N2C(=O)NCc1ccc(C(F)(F)F)cc1 | 6.08% |

| SMILES | hERG current change (%, negative = inhibition) at 1uM |
| --- | --- |
| COc1ccc(C2C(C(=O)N3CCC(C(N)=O)CC3)CC(=O)N2c2ccc(OC)cc2)cc1 (centres unmarked) | 2.44% |
| O=C(Cn1cnc2c(oc3ccccc32)c1=O)NCC1CCCO1 (centres unmarked) | 9.36% |
| Clc1ccc(-c2nnc3n2CCCCC3)cc1 | 2.2% |
| CCCCCCNC1=NCCS1 | 3.28% |
| CCC(CC)C(=O)Nc1nc(-c2ccc3c(c2)CCN3C(=O)C2CC2)c(C)s1 | 17.6% |
| O=C(Nc1cccnc1)c1ccc(COc2ccccc2Cl)o1 | 4.59% |
| COc1ccc2nc(NC(=O)c3ccc(NS(=O)(=O)c4cccs4)cc3)sc2c1 | 12.5% |
| COc1ccc(/C=C2\SC(=O)N(CCn3cnnn3)C2=O)cc1 | 2.24% |
| COc1cc(OC)c(NC(=O)Cn2cnc3sc(C)c(S(=O)(=O)N4CCOCC4)c3c2=O)cc1Cl | 10.1% |
| COc1cc(-c2cc(C(=O)N(C)Cc3ccccc3)c3ccccc3n2)cc(OC)c1OC | 12% |
| Cc1cc(/C=C2/NC(=O)NC2=O)c(C)n1-c1cccnc1 | 15.7% |
| CCN(CC)c1ccc2c(c1)C(=O)N(C)C2=O | 12.7% |
| Cc1cccc(OCC(=O)OC2CCN(C)CC2)c1.Cl | 10.2% |
| CCCCC(=O)Nc1nnc(S(=O)(=O)N2CCCc3ccccc32)s1 | 18.8% |
| O=C(Cc1ccc(-c2ccccc2)cc1)Nc1ccccn1 | 15.4% |
| COc1ccc(/C=C/C(=O)NC(=S)NN2CCCCC2c2cccnc2)cc1OC (centres unmarked) | 9.17% |
| COC(=O)c1ccc(NC(=O)COC(=O)C2=NN(c3ccccc3)C(=O)CC2)cc1 | 7.17% |
| Cc1cccc(C2c3[nH]c4ccccc4c3CCN2Cc2ccc(C)s2)n1 (centres unmarked) | 17.9% |
